The whole screen tested about 44,000 compounds, of which about 340 (0.77%) were called active. Roughly 5% stayed inconclusive and do not appear here. The call rests on the fitted dose curve; in most records, active means well fitted inhibition curve with a large enough effect; inconclusive means small, poorly fitted or top-dose-only effect; inactive means flat fitted curve, though single readings scatter. The list shows a part of the results.
experiment: Acumen qHTS Assay for Inhibitors of the mTORC1 Signaling Pathway in MEF (Tsc2-/-, p53-/-) Cells: Sytravon; conditions: phospho-rpS6 immunofluorescence/PI, 24 h; series mostly up to 38.3 µM; activity change, negative = inhibition: at the top concentration;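 further: plate controls were DMSO for no effect and rapamycin for full effect; nearly all actives have a fitted effect of over 50% in size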
Summary of the method: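 Plate MEFs (Tsc2-/-, p53-/-, empty vector) in DMEM/10% FBS; after 24 h add compound, incubate 24 h at 37 degree Celsius; fix in PFA/TX-100, block, stain phospho-rpS6 and 10 uM PI; scan at 488 nm; report % positive cells.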

SMILES | activity change, negative = inhibition
Cc1ccc(NC(=O)CN2C(=O)c3ccccc3Sc3ccc(C(=O)N4CCOCC4)cc32)cc1F | inactive: -7.49%
CCc1ccc2nc(N(Cc3cccnc3)C(=O)c3ccc(C#N)cc3)sc2c1 | inactive: -24.5%
Cc1ccc(N2CCN(C(=O)c3nn(C)c4c3CS(=O)(=O)c3ccccc3-4)CC2)c(C)c1 | inactive: 6.99%
CC(=O)Nc1ccc(NC(=O)c2oc3c(c2C)-c2nn(Cc4ccccc4Cl)cc2CC3)cc1 | inactive: 7.2%
CCCCC(=O)Nc1ccc2nc(SCC(=O)N3CCc4ccccc43)sc2c1 | inactive: -9.16%
O=C(CCn1c(=O)c2sccc2n(Cc2ccccc2F)c1=O)NCc1ccc2c(c1)OCO2 | inactive: 10.3%
CCOC(=O)c1ccc(NC(=O)Cn2nc3c4ccccc4n(Cc4cccc(F)c4)cc-3c2=O)cc1 | inactive: 1.52%
CCc1cccc(NC(=O)CCn2c(=O)c3cccn3c3cccnc32)c1 | inactive: -19.9%
Cc1ccc(Nc2ccc3cc(S(=O)(=O)N4CCC(C)CC4)ccc3n2)c(Cl)c1 | inactive: 2.2%
CCOc1ccc(-n2cc(-c3ccccc3)c3c(NCCc4ccccc4)ncnc32)cc1 | inactive: 9.8%
Cc1cccc(NC(=O)Cn2nc(-c3ccccc3)c3cnc4ccccc4c32)c1 | inactive: 2.39%
CCOC(=O)N1CCc2c(sc3c2c(=O)n(Cc2ccccc2)c(=O)n3CC(=O)Nc2cccc(CC)c2)C1 | inactive: 0.154%
O=C(CCNS(=O)(=O)c1ccc2c(c1)CCCC(=O)N2)Nc1cccc(Cl)c1 | inactive: 2.15%
COc1ccc(C(=O)c2c(N)c(-c3nc(-c4ccc5c(c4)OCO5)cs3)c3ccccn23)cc1 | inactive: -8.29%
O=C(NCCc1ccccc1)c1ccc(CS(=O)Cc2ccc(Cl)cc2)o1 (configuration not stated) | inactive: -3.5%
COC(=O)Cn1c(C2CC(=O)N(c3c(C)cccc3C)C2)nc2ccccc21 (configuration not stated) | inactive: 0.27%
Cc1cc(NC(=O)CCc2nc3cccnc3n2-c2ccccc2)ccc1Br | inactive: 2.05%
O=C(Nc1ccc(F)cc1F)C1CCN(c2ncccn2)CC1 | inactive: 2.26%
O=S(=O)(c1ccc(C2CCCCC2)cc1)N1CCN(c2ccc(Cl)c(Cl)c2)CC1 | inactive: -8.67%
Cc1ccccc1NC(=O)Cn1cc(C(=O)c2ccco2)c2ccccc21 | inactive: -20.8%
Cc1ccc(C)c(N2CCN(c3ncnc4c3nc3n4CCCC3)CC2)c1 | inactive: -1.48%
CCOC(=O)c1c(C)[nH]c(C)c1S(=O)(=O)N(C)CC(=O)Nc1ccc(OC)cc1 | inactive: -11.2%
Cc1cccc(Cn2cc(S(=O)(=O)c3cccc(Cl)c3)c(=O)c3cc(F)c(N4CCOCC4)cc32)c1 | inactive: -15.9%
Cn1c(=O)c2nc(SCC(=O)Nc3ccc(OC(F)(F)F)cc3)n(C)c2n(C)c1=O | inactive: 0.634%

SMILES | activity change, negative = inhibition
COc1ccc(CC(=O)Nc2c(C(=O)N3CCN(c4ccccc4)CC3)oc3ccccc23)cc1OC | inactive: 5.07%
COc1ccc(-c2nc(CNC(=O)NC3CCCCC3)c(C)o2)cc1 | inactive: 0.0785%
COc1cc(C(CC(=O)Nc2ccc(C)c(F)c2)N2Cc3ccccc3C2=O)cc(OC)c1OC (configuration not stated) | inactive: 0.427%
CCN(CC)c1ncnc2c1cnn2-c1cc(Cl)ccc1C | inactive: -19.9%
O=C1OCC2=C1C(c1cccc(Cl)c1)CC(=O)N2c1ccc(C(F)(F)F)cc1 (configuration not stated) | inactive: 8.79%
CCOc1ccccc1NC(=O)C1CCN(S(=O)(=O)c2c(C)noc2/C=C/c2ccco2)CC1 | inactive: -14.2%
COc1cc(NC(=O)Cn2nc(C(F)(F)F)c3c2CCC3)cc(OC)c1OC | inactive: -14.5%
COc1cc(OC)cc(-c2cc3nc(C)c(CCC(=O)NCCc4cccc(C)c4)c(C)n3n2)c1 | inactive: 0.0372%
COc1ccc(OC)c(CNC(=O)c2ccc(N3Cc4ccccc4Oc4ncccc43)s2)c1 | inactive: -5.76%
O=C(CCn1c(=O)c2ccccc2n(CC(=O)Nc2cccc(F)c2)c1=O)NCCc1ccccc1 | inactive: 4.51%
Cc1noc(-c2ccc(-c3noc(-c4ccc(F)cc4)n3)cc2)n1 | inactive: 2.3%
CCOC(=O)c1cccc(NC(=O)CCSCCc2ccccn2)c1 | inactive: 0.523%
COc1cccc(CNC(=O)c2cc3c(-c4ccccc4F)nn(C)c3s2)c1 | inactive: -1.93%
O=C(CCCn1c2ccccc2c(=O)c2ccccc21)Nc1cccc(Cl)c1 | inactive: 9.53%
COc1cc(C2Nc3ccccc3-c3cc(C)nn32)ccc1O (configuration not stated) | inactive: -14.1%
Cc1ccc(NC(=O)Cn2nc(-c3ccccc3)nc(Cc3ccc(Cl)cc3)c2=O)cc1 | inactive: -6.22%
O=C(NCCc1ccc(Cl)cc1)c1c2c(nc3ccccc13)C(=O)N(C1CCCCC1)C2 | inactive: -10.2%
Cc1csc2nc(COC(=O)c3ccccc3NC(=O)c3cccc(Br)c3)cc(=O)n12 | inactive: 7.43%
O=S(=O)(c1ccc(Br)s1)N1CCN(c2cccc(C(F)(F)F)c2)CC1 | inactive: -3.31%
COCCn1c(SCC(=O)Nc2cc(Cl)ccc2OC)nc2c([nH]c3ccccc32)c1=O | inactive: 2.7%
COc1ccc(CNC(=O)CCNS(=O)(=O)c2ccc3c(c2)oc(=O)n3C)cc1 | inactive: -16%
Cc1ccccc1C(=O)Nc1cc(C)c(O)c(-c2nc3ccccc3o2)c1 | inactive: 1.2%
CCC1CN(C(=O)Nc2ccccc2F)c2cc(C)ccc2O1 (configuration not stated) | inactive: -17.3%
